According to PubChem BioAssay AID686978 (National Center for Advancing Translational Sciences (NCATS), 2013):
Out of some 420,000 compounds screened, about 64,000 (15%) were called active. Inconclusive means that the source gave no clear call. Such entries were picked first, then a sample of the others. Calls come from the whole dose curve; as a rule, active = well fitted inhibition curve with a large enough effect; inconclusive = small, poorly fitted or top-dose-only effect; inactive = flat fitted curve, though single readings scatter. No potency is given beside an inconclusive call; the fits are too rough.

Assay: qHTS for Inhibitors of human tyrosyl-DNA phosphodiesterase 1 (TDP1): qHTS in cells in absence of CPT; note: nearly all actives have a fitted effect of over 55% in size
Settings: DT40 Tdp1-/- hTDP1 cells, no CPT, ATP luminescence, 48 h; activity change, negative = growth inhibition: at 46.2 µM (top of the series)
Summary of the method: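 Growth of hTDP1-complemented DT40 Tdp1-knockout cells is measured by ATP luminescence after at least 48 hr compound exposure at 37 °C, with DMSO substituting for the 20 nM CPT used in the parallel screen.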
% is set by controls: 0 for no effect and ±100 for the full control effect; potency is the fitted concentration of half-maximal effect; tags give direction and shape of the fitted curve.

Row | Structure (SMILES) | Potency | activity change, negative = growth inhibition
1 | Cc1ccc(NC(=O)CCN2CCN(C/C=C/c3ccccc3)CC2)cc1C | inconclusive [inhibitor, single point] | –
2 | Cc1cccc(-n2ncc3c(Nc4ccc(F)cc4)ncnc32)c1 | inconclusive [inhibitor, single point] | –
3 | O=C(Nc1ccc(OC(F)(F)F)cc1)c1noc2c1CCCC2 | – | inactive: -10.1%
4 | O=C1CCC/C(=N/NC(=O)c2ccc(CN3c4cccc5cccc(c45)S3(=O)=O)cc2)C1 | inconclusive [inhibitor, single point] | –
5 | CCOc1ccc(-n2c(SCC(=O)Nc3ccc(CC)cc3)nc3c(oc4ccccc43)c2=O)cc1 | inconclusive [inhibitor, single point] | –
6 | CC(C)c1ccc(/C=C/C(=O)n2nnc3ccccc32)cc1 | inconclusive [inhibitor, single point] | –
7 | C/C(CC(=O)N(C(C)C)C(C)C)=N\NC(=O)c1ccccc1Br | – | inactive: -1.6%
8 | CCOc1cc(C(=O)Nc2ccc3c(c2)n(C)c(=O)c(=O)n3C)cc(OCC)c1OCC | inconclusive [inhibitor, single point] | –
9 | N=C1C(c2nc(-c3ccc(F)cc3)cs2)=C(O)CN1CCCN1CCOCC1 | inconclusive [inhibitor, single point] | –
10 | CCCCNC(=O)C1CC(=O)N(CCc2ccc(C)cc2)C1 (stereo not given) | – | inactive: 0.606%
11 | CC1(C2CC2)NC(=O)N(CC(=O)N2CCN(c3ccccc3F)CC2)C1=O (stereo not given) | inconclusive [inhibitor, single point] | –
12 | CCN1CCN(CCCN(Cc2ccco2)C(=S)Nc2ccc(Cl)c(C)c2)CC1 | inconclusive [inhibitor, single point] | –
13 | Cc1ccccc1OCC(O)Cn1c(Br)nc2c1c(=O)n(C)c(=O)n2C (stereo not given) | inconclusive [inhibitor, single point] | –
14 | Cc1onc(-c2ccccc2Cl)c1C(=O)NC(=S)Nc1ccc(C(C)(C)C)cc1 | inconclusive [inhibitor, partial curve, poor fit] | –
15 | CCO[C@@H]1OC(C(=O)Nc2ccccc2)=C[C@H](C)[C@H]1CCCO | – | inactive: -3.71%
16 | Cc1cc(NC(=O)c2ccccc2)ccc1NC(=O)Cc1ccccc1 | – | inactive: -2.7%
17 | O=C(NCC1CCCO1)c1ccc(OC2CCN(C(=O)C3CC3)CC2)cc1 (stereo not given) | – | inactive: 10.4%
18 | O=C(NCCc1csc2nc(-c3ccccc3F)nn12)C(=O)Nc1cc(F)ccc1F | – | inactive: -5.99%
19 | CC(=O)Nc1c(C(=O)N2CCCCCC2)cnn1-c1ccccc1 | – | inactive: -1.98%
20 | COc1ccccc1CNCc1cccc(Oc2ccccc2)c1 | inconclusive [inhibitor, single point] | –
